Assay results as given in PubChem BioAssay AID1671193 (National Center for Advancing Translational Sciences (NCATS), 2021).
Hit rate of the full screen: of about 150,000 compounds, about 180 (0.12%) were called active. This list was built around the results that the source calls inconclusive (neither active nor inactive); the mix of calls is not that of the screen. The call rests on the fitted dose curve; in most records, active means well fitted cell-killing curve with a large enough effect; inconclusive means small, poorly fitted or top-dose-only effect, or effect the other way; inactive means flat fitted curve, though single readings scatter. A potency beside an inconclusive call is a rough fit, not a confirmed value.

test: GF-AFC viability counterscreen for inhibitors of alpha-synuclein gene (SNCA) expression; settings: HEK-293-SNCA-luc viability, GF-AFC fluorescence, 24 h; activity change, negative = cytotoxicity: at 57.1 µM (top of the series) unless noted; further: nearly all actives have a fitted effect of over 30% in size;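 on activity change, negative = cytotoxicity: 0% = DMSO-treated cells and -100% = medium-only wells without cells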
How it was run: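 HEK-293-SNCA-luc cells (1500/well) plated 24 h, then exposed 24 h to a dilution series; GF-AFC added 30 min at 37C, fluorescence 405/540 nm; normalised to medium-only and DMSO wells, Hill fit.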
Potency means the concentration at half of the fitted maximal effect; tags describe the fitted curve by direction and shape.

| Structure (SMILES) | Potency | activity change, negative = cytotoxicity |
| --- | --- | --- |
| O=C1c2c(nc(COc3ccc(Cl)cc3)n2Cc2ccccc2)NCCN1CCOc1ccccc1 | inconclusive: 14.1 µM [cytotoxic, partial curve, poor fit] | – |
| O=C(c1nc(-c2cccc(C(F)(F)F)c2)c2ccccn12)N1CCOCC1 | – | inactive: 4.52% |
| CCC1C(=O)N(C)c2cnc(Nc3ccc(C(=O)NC4CCN(C)CC4)cc3OC)nc2N1C1CCCC1 (centres undefined) | inconclusive: 37.7 µM [cytotoxic, partial curve, poor fit] | – |
| COc1cccc(N2C(=O)NC(=NC3CCCCC3)C23CCN([S+](=O)([O-])c2cccc(C(F)(F)F)c2)C3)c1 (centres undefined) | inconclusive: 3.55 µM [cytotoxic, single point] | – |
| COCCOC1CCN(C(=O)c2ccc(Cc3c(C)noc3C)o2)CC1 | – | inactive: 10.4% [at 12.5 µM] |
| Cc1ccc(NC(=O)/C(C#N)=C/c2ccc(C(C)C)cc2)cc1C | inconclusive: 2.51 µM [rising, full curve, poor fit] | – |
| CC(C)NC(=O)N1CCCC1C(=O)N1CCC(N2CCCC2=O)CC1 (centres undefined) | inconclusive: 7.08 µM [cytotoxic, single point] | – |
| O=c1c2c(CO)c(-c3ccccc3)nn2ccn1Cc1cc(F)ccc1F | – | inactive: 8.48% |
| COc1ccc(C(=O)N2CCc3nc(-c4ccccc4)nc(-c4ccc(Cl)cc4)c3C2)cc1 | – | inactive: -26.9% |
| Cc1cnc(C(=O)N2CCCC(c3nc(C4CCOCC4)no3)C2)cn1 (centres undefined) | – | inactive: -0.0123% |
| CNC(=O)[C@@H]1CN(C(=O)COc2ccc(Cl)cc2C)C[C@H]1CO | – | inconclusive: -30.9% [cytotoxic] |
| CCOc1ccc(OCC)c(-c2nc3ccc(-c4ccc(OC)c(OC)c4OC)cc3o2)c1 | – | inactive: -2.6% |
| COc1ccc(-c2noc([C@@H]3CCCN3C(=O)c3ccc(C)nc3)n2)cc1 | inconclusive: 31.6 µM [cytotoxic, partial curve, poor fit] | – |
| O=C(NCCc1ccccc1)c1cc(-c2ccsc2)c2nncn2n1 | – | inactive: -12% |
| C[C@H](NCc1ccc2c(c1)nc(NC(=O)c1ccc(-c3cn[nH]c3)s1)n2CCc1ccccc1)C(C)(C)C | inconclusive: 3.04 µM [cytotoxic, full curve] | – |
| Cc1ccc(C(=O)Nc2ccc(Oc3cc4cnn(C)c4cc3-c3cn[nH]c3)c(F)c2)c(=O)n1-c1ccc(F)cc1 | inconclusive: 5.39 µM [cytotoxic, partial curve, poor fit] | – |
| COc1ccc(N2CCN(C(=O)c3cn(CC(C)C)c(=O)c4c3c3ccccc3n4C)CC2)cc1 | inconclusive: 12.6 µM [cytotoxic, partial curve, poor fit] | – |
| Cc1ccccc1Nc1c(-c2ccc(N3CCOCC3)cc2)nc2ccc(Br)cn12 | inconclusive: 1 µM [cytotoxic, full curve] | – |
| CC(C)C[C@@H]1N[C@H](C(=O)NCC2CC2)Cc2cn(Cc3ccncc3)c3cccc1c23 | inconclusive: 56.2 µM [cytotoxic, single point] | – |
| COCCn1c(=O)c(C(=O)NCc2cccc(F)c2)nc2cccnc21 | – | inactive: 5.71% |

| Structure (SMILES) | Potency | activity change, negative = cytotoxicity |
| --- | --- | --- |
| CCc1c(C)sc2c1CCN(Cc1ccccc1F)C2c1ccccc1 (centres undefined) | inconclusive: 28.2 µM [cytotoxic, partial curve, poor fit] | – |
| Cc1nc(C)c(C(=O)N2CCCCCNC(=O)[C@@H]3CCC[C@@H]32)s1 | inconclusive: 0.708 µM [cytotoxic, full curve, poor fit] | – |
| Cc1ccc(NC(=O)/C=C/c2ccccc2Cl)cc1Cl | – | inactive: 8.12% |
| COc1cc(F)ccc1-c1nccc2c(=O)cc(-c3cnn(C)c3)oc12 | inconclusive: 50.1 µM [cytotoxic, single point] | – |
| Cc1cccc(-n2c(=O)c3ccccc3n(Cc3ccc(F)cc3)c2=O)c1 | inconclusive: 17.8 µM [cytotoxic, partial curve, poor fit] | – |
| COc1ccc(S(=O)(=O)N2CCN(c3ccccc3OC)CC2)cc1 | inconclusive: 4.47 µM [rising, full curve, poor fit] | – |
| CN(C)c1ncc2nc(-c3ccc(Cl)cc3)c(=O)n(C[C@H]3CCCO3)c2n1 | inconclusive: 15.8 µM [rising, partial curve, poor fit] | – |
| Cc1ccc(-c2ccc3nnc(CNC(=O)c4cccn4C)n3n2)cc1C | – | inactive: -8.39% |
| COc1ccc(CNC(=O)N2CCc3c(nc(-c4ccc(OC)cc4)[nH]c3=O)C2)cc1 | inconclusive: 8.91 µM [cytotoxic, partial curve, poor fit] | – |
| NC(=O)c1cccc(CN2CCC3(Cc4ccccc4N(C(=O)c4ccc(Cl)cc4)C3)C2)c1 (centres undefined) | inconclusive: 39.8 µM [cytotoxic, single point] | – |
| CN1CCC(Nc2nc(Nc3ccc(Oc4ccccc4)cc3)c3c(=O)[nH]cc(Br)c3n2)CC1 | inconclusive: 23.8 µM [cytotoxic, partial curve, poor fit] | – |
| COc1ccc(C(=O)NC[C@@H]2C=C(C)[C@H](CC(=O)O)C[C@H]2C(C)C)cc1 | – | inactive: -17% [at 87.6 µM] |
| CCN1c2cc(C(=O)Nc3cc(OC)cc(OC)c3)ccc2C(=O)N2CCCCC21 (centres undefined) | – | inactive: 11.9% [at 12.5 µM] |
| CCc1ccccc1N(C)C(=O)C1CCCN(c2ncnc3c2nc2n3CCCCC2)C1 (centres undefined) | inconclusive: 7.94 µM [cytotoxic, full curve, poor fit] | – |
| O=C(CC1CCCC1)N1CCC(Cc2nc(-c3ccc(F)cc3)no2)CC1 | inconclusive: 1.26 µM [rising, partial curve, poor fit] | – |
| Cc1ccc(-n2ncc(C(=O)NCc3ccco3)c2C2CCN(C(=O)OC(C)(C)C)CC2)cc1C | inconclusive: 39.8 µM [cytotoxic, single point] | – |
| O=C(CSc1nc(-c2cccc(F)c2)[nH]c1-c1ccccc1)Nc1ccc2c(c1)OCO2 | inconclusive: 14.1 µM [cytotoxic, partial curve, poor fit] | – |
| COc1cccc(CN2CCCCCCNC(=O)CC2c2ccccc2)c1 (centres undefined) | – | inactive: -8.25% |
| Cn1c(C(=O)NC2CCN(Cc3ccccc3)CC2)cc2c1CCN(Cc1ccccc1)C2 | – | inactive: -2.25% |
| COc1ccc2nc(-c3cc(OC)c(OC)c(OC)c3)cc(C(=O)NCC(=O)Nc3ccc(C(C)=O)cc3)c2c1 | inconclusive: 18.9 µM [cytotoxic, partial curve, poor fit] | – |

| Structure (SMILES) | Potency | activity change, negative = cytotoxicity |
| --- | --- | --- |
| COc1ccc(OC)c(NC(=O)Cn2c(-c3cnccn3)nc(C)c(CCO)c2=O)c1 | inconclusive: 1.26 µM [rising, full curve, poor fit] | – |
| Cc1cnc(CNc2ccnc(-c3cccc(C#N)c3)n2)cn1 | inconclusive: 1.78 µM [cytotoxic, partial curve, poor fit] | – |
| COc1ccc(C2(C(=O)N3CCC4(CC3)CC(C(=O)N3CCOCC3)N(C)C4)CC2)cc1 (centres undefined) | inconclusive: 8.91 µM [cytotoxic, single point] | – |
| COc1ccc(C2C(C(=O)OC(C)(C)C)=C(C)N=C3SC=C(CC(=O)N4CCCC4)N32)cc1OC (centres undefined) | inconclusive: 8.91 µM [cytotoxic, single point] | – |
| CNC(=O)C1CCC(Cn2c(=O)c3sccc3n(CC(=O)N3CCCC(C)C3)c2=O)CC1 (centres undefined) | inconclusive: 11.2 µM [cytotoxic, partial curve, poor fit] | – |
| Cc1nc(N2CCC(NC(=O)c3ccc4c(c3)OCO4)CC2)cc(C(F)(F)F)n1 | inconclusive: 28.2 µM [cytotoxic, single point] | – |
| COc1cc(-c2nc(SCC(=O)Nc3ccc4c(c3)OCO4)c(-c3ccccc3)[nH]2)cc(OC)c1OC | inconclusive: 25.1 µM [cytotoxic, partial curve, poor fit] | – |
| O=C(NCc1ccccn1)C1CCCN(c2ccnc3ccnn23)C1 (centres undefined) | inconclusive: 5.01 µM [cytotoxic, single point] | – |
| O=C(Nc1ccccc1-c1cn2c(CN3CCNCC3)csc2n1)c1ccc2ccccc2n1 | inconclusive: 13.4 µM [rising, partial curve, poor fit] | – |
| COc1ccc(NC(=O)Cn2c(N3CCCCC3)nc(C)c(C)c2=O)cc1Cl | inconclusive: 39.8 µM [cytotoxic, single point] | – |
| O=C([C@@H]1C[C@H](F)CN1S(=O)(=O)Cc1ccccc1F)N1CCc2ccccc2C1 | inconclusive: 11.2 µM [cytotoxic, partial curve, poor fit] | – |
| Cc1ccc(-n2ncc3c(N4CCCCCC4)ncnc32)cc1Cl | – | inactive: 1.99% |
| COc1cccc2c1C(=O)c1c(O)c3c(c(O)c1C2=O)C[C@@](O)(C(=O)CO)C[C@@H]3O[C@H]1C[C@H](N)[C@@H](O)[C@H](C)O1 | inconclusive: 15.2 µM [cytotoxic, partial curve] | – |
| Nc1ccc(C(=O)N2CCCn3nc(C(=O)Nc4ccccc4)cc3C2)cn1 | – | inactive: 3.13% |
| O=C(C1CCC(N2Cc3cccn3C2=O)CC1)C1CCN([S+](=O)([O-])c2cccs2)CC1 (centres undefined) | – | inactive: 2.08% |
| CCCN(CCC)C(=O)Cn1c(=O)n(-c2cccc(C)c2)c(=O)c2c1c1cc(OC)ccc1n2C | inconclusive: 2.82 µM [cytotoxic, full curve, poor fit] | – |
| COc1cc(F)cc(-c2cnc3[nH]cc(CC(=O)N4CCOCC4)c3c2)c1 | inconclusive: 39.8 µM [cytotoxic, partial curve, poor fit] | – |
| CCc1ccc(CNC(=O)C2CCCN(c3nnc(C)c4c(C)n(-c5ccccc5)nc34)C2)cc1 (centres undefined) | inconclusive: 8.91 µM [cytotoxic, full curve, poor fit] | – |
| COc1ccccc1C(=O)Nc1nc2n(n1)C(c1ccc(F)cc1)C=C(c1ccc(Cl)cc1)N2 (centres undefined) | inconclusive: 22.4 µM [rising, partial curve] | – |
